± gives the standard deviation of the averaged measurements. Some of the results follow.
system: PfAP2-EXP AP2 domain (GST-tagged); experiment: gcPBM binding intensity (ln(normalized median fluorescence intensity)); higher = stronger DNA binding
In short: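 DNA-binding domains from P. falciparum, fused to GST and produced in E. coli, were put on an Agilent 4 × 180k double-stranded probe array for 1 h in 1× PBS holding 1% milk, 0.2 mg/ml BSA, 0.5% salmon testes DNA and 0.03% Triton X-100. Probes were primer-extended, 36 bp long and drawn from intergenic genomic regions, with negative controls included. After Alexa488 anti-GST antibody detection and a 488 nm scan, binding intensity was set as the highest Masliner-normalised natural-log median intensity across replicate spots of either probe orientation.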

Sequence | gcPBM binding intensity (ln)
CATATAGTAATATATACACACACTTGTCTTGTAAAA [CACACA_site8238] | 8.36 ± 0.49
ATATTTATAATTTTTTGTACACATTTTTTAAAGATA [XGTACX_site1784] | 8.65 ± 0.38
AAATGGAAAAGGTGTACACAAAAAAAAGGGAAAAGC [CACACA_site5331] | 9.39 ± 0.35
TACATATAAATATATAAATATAAATAAATAAATAAA [XGTACX_negctrl_site180] | 8.5 ± 0.24
TTTTTTTTTTTTTTTGCACACACATTGAATTATTAT [CACACA_site198] | 8.45 ± 0.47
CTTTATATATAGTGTACACATTAAACAAATCTCAAT [CACACA_site5845] | 8.7 ± 0.3
TTACCAAAAACCTCAAGTACAAAAAATCCCTAATAT [XGTACX_site2313] | 8.49 ± 0.53
ATAGTATACAGACACACACACACACGGATATAAATA [CACACA_site6914] | 8.89 ± 0.49
AAGTTTAAGAAATAATTCATATTTACTTCCATCCTC [GTGCAC_negctrl_site494] | 8.23 ± 0.39
ATATATATATATATATGTACTAAATATTCATCCTTA [XGTACX_site6039] | 10.2 ± 0.3
TATGTAAAAACAGGCACACATATATCATATATATAT [CACACA_site619] | 9.525 ± 0.035
TATGTATGCCTGTTTTGTACTTAAGAAAATGTTGCT [XGTACX_site8443] | 8.59 ± 0.38
AAAAAAAAAAAAAAAAGTACATAATATAAAATCTAA [XGTACX_site6019] | 8.48 ± 0.4
TATAAATATATATGTACACACATATACATGTTGAAT [CACACA_site3118] | 8.41 ± 0.26
TATAAACATAAATATACACACAAACATCTATGTATT [CACACA_site4804] | 8.32 ± 0.42
AAAAAAAAATATCACACACACATAAATATAAACCAA [CACACA_site2279] | 8.71 ± 0.48
AGGCACTTATAATAATGTACATAAATAAAAAGAAAA [XGTACX_site6037] | 8.81 ± 0.35
ATTGGGTTCATCAGCACACACAACATCATGTAATAA [CACACA_site5093] | 8.46 ± 0.53
AGAGCATAATAAAACACACACATACATACATATATA [CACACA_site935] | 8.57 ± 0.55

Sequence | gcPBM binding intensity (ln)
AAAAAAAAAAAAACTACACACATAAAATATATTGTG [CACACA_site805] | 8.19 ± 0.38
TAAAACATCAAGGGGTGTACAAAAAAGATGAACAGG [XGTACX_site6929] | 9.1 ± 0.46
AAAAAAATAACAAAGTGTACTTTTATATTTTACATA [XGTACX_site8954] | 8.13 ± 0.25
TTCTGCAGCAATGTTTTTTTTAAATATTTATATGGT [CACACA_negctrl_site1815] | 8.76 ± 0.56
ACCCATTTTAATTTAGTGCACATTTTACCTTTATAC | 9.19 ± 0.26
GCTAGTTTTTTTTGGCGTACAGTACCGGTTTACTTT [XGTACX_site2606] | 9.1 ± 0.37
TTTTTTTCTTTTTCAAAAAAAAAAAAAAAAAAAATA [GTGCAC_negctrl_site329] | 7.82 ± 0.5
CATACCATACATAAAACACACAAAATTTACATAATA [CACACA_site3100] | 8.73 ± 0.42
TATAGTTTTATTATTTATGTGTTAAAATTATACAAG [TGCATGCA_negctrl_site246] | 8.26 ± 0.53
TTCCTCTTAATATGTGCACACTAAATTATAACATAA [CACACA_site3260] | 8.86 ± 0.22
AAAAAAAAAAAAAAATGTACATATTAAGTATAATTA [XGTACX_site4616] | 8.38 ± 0.26
CAATTTGGTGTACAGGTGCACATGCCTCACGATAAA [GTGCAC_site9650] | 9.38 ± 0.28
GAAAAATGTAAATACATATATGTACACAAATATATA [GTGCAC_negctrl_site557] | 8.65 ± 0.37
TTAGCTCAATTTTTGGGTACACACAAATGTATAATA [XGTACX_site5003] | 8.53 ± 0.3
TTTAATTCCATAAGTAAACACACAAATGCCAAAATT [CACACA_site9049] | 8.8 ± 0.42
AATATTTATAAATTTACACACACACGGGTGAACATA [CACACA_site6979] | 8.69 ± 0.4
ATTCTAAATTAAAATACACACATATATACATAATAT [CACACA_site2792] | 8.34 ± 0.51
TTTTAAGGTGTGAAGGTGCAAAAAGGTAAATAGGAA | 9.705 ± 0.021
AAAATACATAAACACACACACACACCGATATATATA [CACACA_site9186] | 8.84 ± 0.5

Sequence | gcPBM binding intensity (ln)
CACAAACACCCAAACACACACACACCGACATACATA [CACACA_site4410] | 8.41 ± 0.54
TAAACAGAAGCACATACACACACTCAAAAAAAAAAA [CACACA_site3051] | 8.56 ± 0.6
AAAAAAAAAAAAGGCACACAAACATATGTAGACATA [CACACA_site2284] | 8.64 ± 0.61
TCGTGTGTAATATTATATATATATATATAATATATA [TGCATGCA_negctrl_site289] | 8.74 ± 0.26
TTCTTTTATAAAAGTAGTACAATTATATTGTAATTA [XGTACX_site2855] | 8.29 ± 0.26
TCTTTTATATTGTAGAGTACATATTTTCAATATATA [XGTACX_site5586] | 8.36 ± 0.23
GTGATACGCTATAGGACACACGCTTAATAATTATAA [CACACA_site1694] | 8.49 ± 0.4
AAATTGTCAAAACACGCACACACATATACATAATAA [CACACA_site1743] | 8.7 ± 0.32
ATCATAAATTATTATACACACAATACGTGACCTATT [CACACA_site1906] | 8.71 ± 0.41
TAGAAGCAGAAACACACACACATACATACACATACA [CACACA_site1467] | 8.8 ± 0.41
TCTATGTAGTTTTTATGTACTAAATAAATAAATAAA [XGTACX_site2599] | 8.24 ± 0.35
TAAATGTCCTTATTTGCACACACACCGATAAGAAAT [CACACA_site5723] | 8.65 ± 0.33
ACTATTAACAGTGTAGTGCAAAAAGGTTAATTATTA | 8.82 ± 0.17
TTTTCAATATATATTTGTACTTTATTTTATGATATT [GTGCAC_negctrl_site732] | 8.73 ± 0.44
GCATTCATTTTTAATACACACAAAAAAAAAATAAAA [CACACA_site2408] | 8.43 ± 0.41
TACATATATATTTGTTCACACACACCCAAAAAAAAA [CACACA_site8788] | 8.65 ± 0.52
TACGCACAAAAATATACACACACACCGATATATTTA [CACACA_site9213] | 8.5 ± 0.41
AGACATTTTTAAGCAAAACATTCATCATCTTATAAT [CACACA_negctrl_site1539] | 8.63 ± 0.43
TATTTTACACATTTACGTACATAAATATATATATAT [XGTACX_site8788] | 9.62 ± 0.23

Source: the supplement of paper PMC11417369
